Results taken from PubChem BioAssay (NCATS).
Several values for one entry are separate records, joined by “and”; a condition that tells them apart may be missing. Identical values can stand only once. Inconclusive means that the source gave no clear call. Such entries were picked first, then a sample of the others. For part of these data: A potency beside an inconclusive call is a rough fit, not a confirmed value. Activity calls are given as the source filed them. Unless noted, calls come from the whole dose curve; as a rule, active = well fitted curve in the direction sought with a large enough effect; inconclusive = small, poorly fitted or top-dose-only effect, or another doubt; inactive = no such curve, though single readings can be large; an effect the other way counts as inactive or inconclusive.

Tests used:
[1] = biological target: DNA repair nuclease/redox regulator APEX1 (Homo sapiens) (UniProt P27695); test: qHTS Validation Assay for Inhibitors of the Human Apurinic/apyrimidinic Endonuclease 1 (APE1) (AID 1705; note: potency is the fitted concentration of half-maximal effect)
UniProt P27695, sequence (P27695 whole entry, looked up): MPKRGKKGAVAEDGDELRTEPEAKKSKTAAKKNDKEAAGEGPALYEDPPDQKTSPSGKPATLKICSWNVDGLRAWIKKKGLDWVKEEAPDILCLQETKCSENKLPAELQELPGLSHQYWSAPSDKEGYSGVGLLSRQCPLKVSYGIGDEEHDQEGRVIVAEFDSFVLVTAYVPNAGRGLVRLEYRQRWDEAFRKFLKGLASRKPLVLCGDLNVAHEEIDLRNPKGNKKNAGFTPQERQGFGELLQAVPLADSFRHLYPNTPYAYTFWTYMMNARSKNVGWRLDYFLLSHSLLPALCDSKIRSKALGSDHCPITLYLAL
Summary of the method: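 Human APE1 was preincubated with compound for 15 min at room temperature, then 50 nM (final) THF-abasic double-stranded DNA substrate bearing 5'-TAMRA and 3'-BHQ-2 was added. Incision-driven fluorescence rise (ex 525/em 598 nm) was read kinetically.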

[2] = qHTS for differential inhibitors of proliferation of Plasmodium falciparum line 7G8 (AID 1815);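 note: potency is the fitted concentration of half-maximal effect; parasite growth measured after three days of incubation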
[3] = qHTS for differential inhibitors of proliferation of Plasmodium falciparum line GB4 (AID 1816); details: Potency: Plasmodium falciparum GB4 proliferation inhibition;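 note: parasite growth measured after 72 h incubation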; note: potency is the fitted concentration of half-maximal effect;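 for activity change, negative = inhibition: 0% = vehicle DMSO and -100% = reference inhibitor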
[4] = qHTS for differential inhibitors of proliferation of Plasmodium falciparum line 3D7 (AID 1876); note: potency is the fitted concentration of half-maximal effect
[5] = qHTS for differential inhibitors of proliferation of Plasmodium falciparum line D10 (AID 1877);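 note: parasites grown with compound for 72 h before DNA staining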; note: potency is the fitted concentration of half-maximal effect;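 for activity change, negative = inhibition: plate controls were vehicle wells for no effect and reference inhibitor wells for full effect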
[6] = qHTS for differential inhibitors of proliferation of Plasmodium falciparum line Dd2 (AID 1882); details: Potency: Plasmodium falciparum Dd2 proliferation inhibition;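 note: plate controls were DMSO vehicle for no effect and 0.29 µM artemisinin for full effect; nearly all actives have a fitted effect of over 65% in size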
Summary of the method: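 Dd2-infected erythrocytes (0.3% parasitemia, 2.5% hematocrit final) incubated with compound 72 h at 37 C, 5% CO2; lysed with saponin/Triton buffer containing SYBR Green I, incubated overnight in the dark, then read by fluorescence (485/535 nm). Normalized to 0.29 uM artemisinin and DMSO.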

[7] = qHTS for differential inhibitors of proliferation of Plasmodium falciparum line HB3 (AID 1886); details: Potency: Plasmodium falciparum HB3 proliferation inhibition;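 note: potency is the fitted concentration of half-maximal effect; parasites grown with compound for 72 h before SYBR Green readout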
[8] = biological target: RecQ-like DNA helicase BLM (Homo sapiens) (UniProt P54132); test: qHTS Validation Assay for Inhibitors of Bloom's syndrome helicase (BLM) (AID 2364); note: potency is the fitted concentration of half-maximal effect;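 for activity change, negative = inhibition: plate controls were DMSO vehicle for no effect and enzyme-free control for full effect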
UniProt P54132, sequence (P54132 whole entry, looked up): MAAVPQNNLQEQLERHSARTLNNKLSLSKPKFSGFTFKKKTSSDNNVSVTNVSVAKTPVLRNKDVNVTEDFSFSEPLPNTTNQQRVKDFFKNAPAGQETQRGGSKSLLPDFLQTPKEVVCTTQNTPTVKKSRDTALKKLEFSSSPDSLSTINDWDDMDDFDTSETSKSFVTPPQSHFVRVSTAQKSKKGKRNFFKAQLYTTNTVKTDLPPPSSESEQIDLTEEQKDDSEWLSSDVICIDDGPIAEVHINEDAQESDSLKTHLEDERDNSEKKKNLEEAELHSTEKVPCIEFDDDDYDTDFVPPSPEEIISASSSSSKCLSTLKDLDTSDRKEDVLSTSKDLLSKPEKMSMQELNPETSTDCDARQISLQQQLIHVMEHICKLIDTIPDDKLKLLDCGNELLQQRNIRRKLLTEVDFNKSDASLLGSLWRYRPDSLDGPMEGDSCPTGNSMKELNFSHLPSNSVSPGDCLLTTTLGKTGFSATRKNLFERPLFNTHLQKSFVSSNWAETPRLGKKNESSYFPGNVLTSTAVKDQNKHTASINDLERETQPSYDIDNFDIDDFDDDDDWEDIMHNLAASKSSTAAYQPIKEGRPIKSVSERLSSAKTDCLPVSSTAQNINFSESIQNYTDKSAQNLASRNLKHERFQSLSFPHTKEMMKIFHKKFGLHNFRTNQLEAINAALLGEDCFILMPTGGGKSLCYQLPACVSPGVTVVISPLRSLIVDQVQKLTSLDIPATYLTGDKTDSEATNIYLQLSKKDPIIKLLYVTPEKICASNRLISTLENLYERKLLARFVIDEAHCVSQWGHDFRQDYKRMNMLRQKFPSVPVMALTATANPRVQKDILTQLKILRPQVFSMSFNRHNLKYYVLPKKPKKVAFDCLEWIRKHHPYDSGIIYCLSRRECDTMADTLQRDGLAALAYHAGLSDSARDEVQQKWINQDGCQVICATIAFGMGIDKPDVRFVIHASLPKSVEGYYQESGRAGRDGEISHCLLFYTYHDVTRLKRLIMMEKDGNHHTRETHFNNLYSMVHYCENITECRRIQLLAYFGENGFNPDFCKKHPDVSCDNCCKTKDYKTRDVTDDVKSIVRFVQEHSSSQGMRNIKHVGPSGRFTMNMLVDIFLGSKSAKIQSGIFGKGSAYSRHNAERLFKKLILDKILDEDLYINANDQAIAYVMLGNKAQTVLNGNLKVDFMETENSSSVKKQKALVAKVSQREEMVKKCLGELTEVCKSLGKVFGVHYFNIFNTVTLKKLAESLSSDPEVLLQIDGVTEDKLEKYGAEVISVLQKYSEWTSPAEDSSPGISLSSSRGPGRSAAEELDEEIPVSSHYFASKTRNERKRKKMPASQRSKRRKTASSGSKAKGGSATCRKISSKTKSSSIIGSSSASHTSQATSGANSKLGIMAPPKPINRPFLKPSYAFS
Summary of the method: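 Forked 20-bp duplex substrate (200 nM, TAMRA/BHQ-2) plus 2 mM ATP added after 15 min compound preincubation with 50 nM enzyme, pH 8.0, poly(dI-dC) 2.5 ug/ml. Strand separation followed by fluorescence (525/598 nm) over 2 h, normalized to enzyme-free and DMSO controls.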

[9] = biological target: Phospholipid hydroperoxide glutathione peroxidase GPX4 (Homo sapiens) (UniProt P36969); test: Primary qHTS Assay for Inhibitors of Recombinant Selenoprotein Glutathione Peroxidase 4 (GPX4) (AID 1845192); note: nearly all actives have a fitted effect of over 65% in size
UniProt P36969, sequence (P36969 whole entry, looked up): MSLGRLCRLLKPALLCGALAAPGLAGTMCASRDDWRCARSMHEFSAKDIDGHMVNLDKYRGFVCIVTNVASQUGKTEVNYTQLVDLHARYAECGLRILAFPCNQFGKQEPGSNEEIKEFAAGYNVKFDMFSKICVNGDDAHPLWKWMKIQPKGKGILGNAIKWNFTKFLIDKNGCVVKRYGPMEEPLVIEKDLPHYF
Summary of the method: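 NADPH consumption, followed by fluorescence at 340/450 nm between 0 and 15 min, reports GPX4 activity via coupled glutathione reductase (100 nM). Enzyme 200 nM was pre-exposed to compound 30 min; 0.5 mM cumene hydroperoxide and 1 mM GSH served as substrates.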

[10] = biological target: DNA polymerase eta (Homo sapiens) (UniProt Q9Y253); test: qHTS for Inhibitors of Polymerase Eta: Confirmatory Assay for Cherry-picked Compounds (AID 720502); details: Pol eta primer extension, TAMRA/BHQ fluorescence, 10 min; note: potency is the fitted concentration of half-maximal effect
UniProt Q9Y253, sequence (Q9Y253 whole entry, looked up): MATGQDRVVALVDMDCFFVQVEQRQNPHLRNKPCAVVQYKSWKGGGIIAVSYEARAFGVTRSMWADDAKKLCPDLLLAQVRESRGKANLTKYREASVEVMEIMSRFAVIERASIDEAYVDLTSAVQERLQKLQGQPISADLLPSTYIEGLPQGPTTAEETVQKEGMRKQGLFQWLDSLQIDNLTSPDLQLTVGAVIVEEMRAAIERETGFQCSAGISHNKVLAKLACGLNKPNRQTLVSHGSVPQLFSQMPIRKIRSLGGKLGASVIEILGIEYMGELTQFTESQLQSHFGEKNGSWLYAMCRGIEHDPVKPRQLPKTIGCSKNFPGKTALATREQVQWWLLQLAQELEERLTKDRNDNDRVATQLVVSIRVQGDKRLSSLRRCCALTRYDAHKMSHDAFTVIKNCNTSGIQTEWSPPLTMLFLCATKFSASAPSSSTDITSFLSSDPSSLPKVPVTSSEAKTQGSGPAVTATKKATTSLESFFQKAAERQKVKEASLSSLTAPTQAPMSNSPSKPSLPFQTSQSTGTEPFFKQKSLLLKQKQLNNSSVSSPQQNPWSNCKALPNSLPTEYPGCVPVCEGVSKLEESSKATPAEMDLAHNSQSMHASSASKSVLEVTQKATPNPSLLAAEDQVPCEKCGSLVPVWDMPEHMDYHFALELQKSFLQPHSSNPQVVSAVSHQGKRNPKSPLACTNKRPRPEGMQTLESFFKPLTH
Summary of the method: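 The reaction starts with 50 nM final labeled DNA substrate added to Pol eta (10 nM) that had sat with compound for 15 min. TAMRA emission at 598 nm is read at 0 and 10 min.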

[11] = biological target: Rap guanine nucleotide exchange factor 3 (Homo sapiens) (UniProt O95398); test: Counterscreen qHTS for agonist of cAMP-regulated guanine nucleotide exchange factor 3 (EPAC1) (AID 1645889); details: EPAC1 Rap1B-BODIPY-GDP exchange, fluorescence; activation: at 154 µM (top of the series) unless noted; note: potency is the fitted concentration of half-maximal effect; nearly all actives have a fitted effect of over 40% in size
UniProt O95398, sequence (O95398 whole entry, looked up): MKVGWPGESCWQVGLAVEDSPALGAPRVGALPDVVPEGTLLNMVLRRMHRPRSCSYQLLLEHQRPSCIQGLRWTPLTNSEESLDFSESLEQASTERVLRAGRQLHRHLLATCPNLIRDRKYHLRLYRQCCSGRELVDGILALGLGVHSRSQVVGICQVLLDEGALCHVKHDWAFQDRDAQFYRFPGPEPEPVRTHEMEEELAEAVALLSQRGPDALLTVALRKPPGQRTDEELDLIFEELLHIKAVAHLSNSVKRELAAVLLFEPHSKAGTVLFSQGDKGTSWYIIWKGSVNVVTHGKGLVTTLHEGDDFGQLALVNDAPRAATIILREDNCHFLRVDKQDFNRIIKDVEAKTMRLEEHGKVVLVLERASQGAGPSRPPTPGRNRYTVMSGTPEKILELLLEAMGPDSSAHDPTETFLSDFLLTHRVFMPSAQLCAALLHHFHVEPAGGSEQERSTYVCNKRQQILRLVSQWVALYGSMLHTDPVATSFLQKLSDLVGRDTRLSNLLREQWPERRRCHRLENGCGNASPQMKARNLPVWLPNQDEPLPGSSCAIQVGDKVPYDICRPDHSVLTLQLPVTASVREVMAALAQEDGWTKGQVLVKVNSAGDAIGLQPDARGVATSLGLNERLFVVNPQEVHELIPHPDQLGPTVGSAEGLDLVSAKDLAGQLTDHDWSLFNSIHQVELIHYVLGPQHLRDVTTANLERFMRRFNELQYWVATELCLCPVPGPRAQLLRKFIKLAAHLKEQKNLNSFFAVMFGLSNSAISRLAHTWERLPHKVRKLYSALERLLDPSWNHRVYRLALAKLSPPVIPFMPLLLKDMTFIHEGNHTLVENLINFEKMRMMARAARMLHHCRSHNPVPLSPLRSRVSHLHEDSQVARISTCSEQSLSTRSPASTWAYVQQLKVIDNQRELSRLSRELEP
Summary of the method: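 Rap1B-BODIPY-GDP 250 nM + GDP 50 uM; cpds 7-pt, final 9.74 nM–152 uM (activator mode) or from 7.32 nM upwards (inhibitor mode); RT; FI 480/540 nm at 5 and 30 min, then ± cAMP, reread.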

[12] = qHTS Assay for Identification of Small Molecule Antagonists for NFkB Signaling Pathway (AID 895; active = well fitted inhibition curve with a large enough effect in the signal ratio, with a control signal flat, not every such curve was filed as active; inconclusive = small, poorly fitted or top-dose-only effect, or effect the other way, or a change in a side signal; the % refers to the signal ratio; note: % is set by controls: 0 for no effect and ±100 for the full control effect); details: NFkB beta-lactamase reporter cells, FRET ratio 460/530, stimulated with 10 pM TNF alpha; activity change, negative = inhibition: at 38.3 µM (top of the series)
Summary of the method: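 Beta-lactamase reporter read-out (460 and 530 nm emission ratio, 405 nm excitation, 2 hrs substrate loading RT) after 5 hr stimulation with 10 pM TNF alpha in compound-treated NFkB-bla ME-180 cells in low-serum medium.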

[13] = qHTS Assay for Identification of Small Molecule Agonists for Hypoxia Response Element Signaling Pathway (AID 914; active = well fitted activation curve with a large enough effect in the signal ratio, with a control signal flat, not every such curve was filed as active; inconclusive = small, poorly fitted or top-dose-only effect, or effect the other way, or a change in a side signal; the % refers to the signal ratio; note: top concentration of the series differs between compounds; % of control where 0% means no effect); details: ME-180 (cervical carcinoma) HRE-bla reporter, beta-lactamase ratio, CoCl2, 17 h; activation: stronger effect = higher value
Summary of the method: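 Compounds in a titration series were added to ME-180 reporter cells alongside an EC50 level of CoCl2. After 17 hours, beta-lactamase activity was read as the 460nm/530nm emission ratio of CCF4, giving AC50 values.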

[14] = qHTS Assay for Identification of Small Molecule Antagonists for Thrombopoietin (TPO) Signaling Pathway (AID 918); details: TPO-dependent cell signaling reporter, antagonist mode; activity change, negative = inhibition: at 38.5 µM (top of the series); note: nearly all actives have a fitted effect of over 60% in size
Summary of the method: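 Murine Ba/F3 cells expressing human TPO receptor and a Glycoprotein IIb promoter-luciferase reporter, IL-3-starved overnight, treated with compound plus TPO at EC50 (26 pM final). After 24 h at 37 C, luminescence read to detect inhibitors.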

[15] = biological target: Muscarinic acetylcholine receptor M1 (Rattus norvegicus) (UniProt P08482); test: qHTS Assay for Antagonists of Acetylcholine Muscarinic M1 Receptor: Measurement of IP-One Response (AID 944); note: nearly all actives have a fitted effect of over 75% in size
UniProt P08482, sequence (P08482 whole entry, looked up): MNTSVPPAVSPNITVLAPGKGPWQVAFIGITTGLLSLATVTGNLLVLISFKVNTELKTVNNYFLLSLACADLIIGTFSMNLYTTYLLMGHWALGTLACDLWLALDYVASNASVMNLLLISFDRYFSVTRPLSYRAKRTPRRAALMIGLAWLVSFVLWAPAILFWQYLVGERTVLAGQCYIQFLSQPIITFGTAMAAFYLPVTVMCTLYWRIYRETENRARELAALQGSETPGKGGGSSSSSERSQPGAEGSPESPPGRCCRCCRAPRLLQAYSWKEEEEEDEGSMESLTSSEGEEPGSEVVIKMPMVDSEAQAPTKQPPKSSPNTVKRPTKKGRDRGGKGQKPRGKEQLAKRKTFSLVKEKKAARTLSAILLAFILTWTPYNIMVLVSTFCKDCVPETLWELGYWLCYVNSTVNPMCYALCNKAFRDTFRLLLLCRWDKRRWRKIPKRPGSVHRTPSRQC

[16] = biological target: Endonuclease 4 (Escherichia coli (strain K12)) (UniProt P0A6C1); test: Counterscreen for APE1 Inhibitors: qHTS Validation Assay for Inhibitors of Endonuclease IV (AID 1708); note: % is set by controls: 0 for no effect and ±100 for the full control effect
Summary of the method: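 qHTS concentration-response format; LOPAC1280 tested under APE1-screen conditions. 2 nM enzyme, 15 min compound preincubation at RT, then 50 nM TAMRA/BHQ-2 abasic substrate; kinetic fluorescence read, three reads at 60 s intervals.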

[17] = qHTS for differential inhibitors of proliferation of Plasmodium falciparum line W2 (AID 1883); details: Potency: Plasmodium falciparum W2 proliferation inhibition;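 note: parasites grown with compound for 72 h before lysis and staining; 0% = vehicle wells and -100% = control inhibitor wells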
[18] = Validation screen for small molecules that induce genotoxicity in human embryonic kidney (HEK293T) cells expressing luciferase-tagged ELG1 (AID 493106); details: luminescence; at 46.1 µM (top of the series); note: 0% is about no effect
Summary of the method: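 HEK293T cells expressing luciferase-tagged ELG1, 2,000 cells/well, exposed to compound 16 hr at 37 °C, 5% CO2. Luciferase read after ONE-Glo, 30 min at room temperature; increased signal indicates genetic stress.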

[19] = qHTS for Inhibitors of ATXN expression: Validation (AID 588378); details: cell-based ATXN2 expression reporter assay, luminescence; at 57.1 µM (top of the series); note: % is set by controls: 0 for no effect and ±100 for the full control effect; nearly all actives have a fitted effect of over 75% in size
Summary of the method: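 Luminescence from an ATXN2-FFLuc reporter in HEK293 cells served as read-out after 24 h compound treatment at 37 degrees C; CellTiter-Fluor fluorescence was recorded first to assess viability.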

[20] = qHTS for Inhibitors of Plasmodium falciparum (GB4) proliferation (AID 504315); note: potency is the fitted concentration of half-maximal effect; nearly all actives have a fitted effect of over 50% in size; details: P. falciparum GB4 in erythrocytes, SYBR Green DNA, 72 h; activity change, negative = inhibition: at 6.7 µM (top of the series)
Summary of the method: (§1)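 Erythrocytes infected with P. falciparum line (0.3% parasitemia, 2.5% hematocrit final) incubated with compounds 72 h at 37 °C, 5% CO2; SYBR Green lysis buffer added, fluorescence read next day. Normalized to 0.29 uM artemisinin and DMSO.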

[21] = qHTS for Inhibitors of Plasmodium falciparum (7G8) proliferation (AID 504316); note: potency is the fitted concentration of half-maximal effect; nearly all actives have a fitted effect of over 65% in size; details: P. falciparum 7G8 in erythrocytes, SYBR Green DNA, 72 h; activity change, negative = inhibition: at 6.7 µM (top of the series)
Summary of the method: as §1

[22] = qHTS for Inhibitors of Plasmodium falciparum (CP250) proliferation (AID 504320); note: potency is the fitted concentration of half-maximal effect
Summary of the method: as §1
Tags give direction and shape of the fitted curve.

With C[C@H]1CC2[C@@H]3CCC4=CC(=O)C=C[C@]4(C)[C@@]3(F)[C@@H](O)C[C@]2(C)[C@@]1(O)C(=O)CO (some centres not stated) the Potency [1] was active: 39.8 µM, the Potency [2] was inconclusive: 11.2 µM [inhibitor, single point] and the Potency [3] was inconclusive: 10 µM [inhibitor, partial curve]. The Potency [4] was inconclusive: 10 µM [inhibitor, single point], the Potency [5] was inconclusive: 15.8 µM [inhibitor, partial curve, poor fit] and the Potency [6] was “inactive”. For the same compound, the Potency [7] was inconclusive: 12.6 µM [inhibitor, partial curve], the Potency [8] was “inactive” and the Potency [9] was “inactive”.
In the case of CC(=O)C1=C(C)OC2(O)c3ccccc3C(=O)C12O (configuration not stated), the Potency [10] is reported as inconclusive: 84.9 µM [inhibitor, single point] and the Potency [11] is reported as inconclusive: 14.1 µM [activator, partial curve, poor fit].
In the case of C#CCn1c(=O)c2c(ncn2C)n(C)c1=O, the Potency [12] is reported as “inactive”, the activation [13] is reported as inconclusive: 31% [activator] and the activity change, negative = inhibition [14] is reported as inconclusive: 7.3% [phenotype inactive]. For the same compound, the Potency [15] was “inactive”, the Potency [16] was “inactive” and the Potency [3] was “inactive”. For the same compound, the Potency [5] was “inactive”, the Potency [17] was “inactive” and the Potency [8] was inconclusive: 15.8 µM [inhibitor, partial curve, poor fit]. For the same compound, the activity change, positive = ELG1 induction [18] was inactive: -5.54% and the activity change, negative = inhibition [19] was inactive: 8.41%.
In the case of COC(=O)CCC(=O)OC1(C)C(=O)C=C2C=C(C3CC3)N(CCCOC(C)C)C=C2C1=O (configuration not stated), the Potency [20] is reported as inconclusive: 1.69 µM [inhibitor, single point] and inconclusive: 2.39 µM [inhibitor, single point], the Potency [21] is reported as inconclusive: 1.9 µM [inhibitor, single point] and inconclusive: 2.13 µM [inhibitor, single point] and the Potency [22] is reported as inconclusive: 2.13 µM [inhibitor, partial curve, poor fit]. The Potency [11] was inconclusive: 15.8 µM [activator, full curve].
For CNCC[C@@H](Oc1ccc(C(F)(F)F)cc1)c1ccccc1, the Potency [16] was “inactive”.
